# Laboratory results from PMC4336329 (PLoS ONE, 2015).
# Out of some 310,000 compounds screened, about 2,200 (0.71%) showed an effect of 50% or more. Effects have a minus sign here. This is one part of the list.
# Biological target: human ether-à-go-go-related gene (hERG) potassium channel (human, UniProt Q12809)
# Assay: primary screen, population patch clamp on CHO cells stably expressing hERG
# Chain of human ether-à-go-go-related gene (hERG) potassium channel (Q12809 whole entry, looked up): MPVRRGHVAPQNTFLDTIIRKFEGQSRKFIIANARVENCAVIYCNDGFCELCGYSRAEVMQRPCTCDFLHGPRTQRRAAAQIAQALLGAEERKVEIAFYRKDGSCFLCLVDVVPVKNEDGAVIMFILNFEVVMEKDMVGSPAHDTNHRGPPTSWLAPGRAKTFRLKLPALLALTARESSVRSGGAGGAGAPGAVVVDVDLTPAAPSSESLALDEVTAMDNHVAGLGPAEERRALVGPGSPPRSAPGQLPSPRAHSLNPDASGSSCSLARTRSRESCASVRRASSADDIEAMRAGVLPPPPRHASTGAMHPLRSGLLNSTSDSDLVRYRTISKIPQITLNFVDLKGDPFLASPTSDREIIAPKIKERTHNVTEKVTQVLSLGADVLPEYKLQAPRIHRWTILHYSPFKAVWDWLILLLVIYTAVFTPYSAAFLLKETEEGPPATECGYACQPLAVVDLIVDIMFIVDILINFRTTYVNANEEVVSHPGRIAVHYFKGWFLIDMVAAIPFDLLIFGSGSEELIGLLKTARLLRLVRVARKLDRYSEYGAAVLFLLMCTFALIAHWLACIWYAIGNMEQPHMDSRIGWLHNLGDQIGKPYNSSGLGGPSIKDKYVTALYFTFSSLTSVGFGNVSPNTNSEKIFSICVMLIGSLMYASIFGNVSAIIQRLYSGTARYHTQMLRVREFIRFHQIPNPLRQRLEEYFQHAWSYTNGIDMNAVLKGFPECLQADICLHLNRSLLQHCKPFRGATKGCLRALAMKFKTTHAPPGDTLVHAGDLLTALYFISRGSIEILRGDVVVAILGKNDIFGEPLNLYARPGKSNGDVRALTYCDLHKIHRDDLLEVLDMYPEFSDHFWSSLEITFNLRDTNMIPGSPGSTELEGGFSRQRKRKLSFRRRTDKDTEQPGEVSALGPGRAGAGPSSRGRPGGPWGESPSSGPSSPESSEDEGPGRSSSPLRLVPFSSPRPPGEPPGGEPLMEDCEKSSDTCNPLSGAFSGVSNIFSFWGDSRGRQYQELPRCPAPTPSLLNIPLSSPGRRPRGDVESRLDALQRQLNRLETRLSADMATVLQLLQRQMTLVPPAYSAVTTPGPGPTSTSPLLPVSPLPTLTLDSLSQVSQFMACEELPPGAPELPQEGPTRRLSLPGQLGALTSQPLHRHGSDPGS
row,SMILES,"hERG current change (%, negative = inhibition) at 1uM [%]"
1,COc1ccc(/C=N/NC(=O)C2COc3ccccc3O2)cc1OC (stereo not shown),6.65
2,CCOC(=O)C1CCN(C(=O)COc2cc(C)c(Br)c(C)c2)CC1,5.02
3,CC(=O)N/C(N)=N/c1nc2cc(C)ccc2o1,11.9
4,N/C(COc1ccc(Cl)cc1)=N\NS(=O)(=O)c1ccccc1,6.81
5,Cc1ccc(/C=C/C(=O)N2CCN(c3ncccn3)CC2)o1,18.3
6,CC(=O)c1sc(NC(=O)C2COc3ccccc3O2)nc1C (stereo not shown),7.18
7,Cc1cc(-c2ccccc2)n[nH]1,7.19
8,CCOc1ccccc1NC(=S)N1CCC(NC(=O)NC23CC4CC(CC(C4)C2)C3)CC1,-4.42
9,CCc1ccccc1NC(=O)COC(=O)C1CC(=O)N(c2ccc(F)cc2)C1 (stereo not shown),0.96
10,NC(=O)NCc1ccc(Cl)cc1,10.9
11,COc1ccc(OCc2nnc(SCC(=O)N3CCCc4ccccc43)n2-c2ccc(C)cc2)cc1,3.22
12,Cc1cccc(NC(=O)N(C)Cc2cccs2)c1,0.957
13,CSc1cc(-c2ccccc2)n(Cc2ccccc2Cl)c(=O)c1C#N,13.9
14,CC(OC(=O)Cn1cnc2c1c(=O)n(C)c(=O)n2C)C(=O)NC1CCCCC1C (stereo not shown),13.9
15,Cc1ccc(-c2cc(-c3nnc(SCC(=O)NCC(C)C)n3N)c3ccccc3n2)cc1,9.52
16,COc1ccc2ccccc2c1/C=N/NC(=O)c1cccc([N+](=O)[O-])c1,14.1
17,O=S(=O)(c1ccc(Cl)s1)N1CCN(c2ncccn2)CC1,-1.08
18,CCOC(=O)c1c(-c2ccsc2)csc1N,-1.94
19,COc1ccc(S(=O)(=O)n2nc(OC(=O)c3ccc(C)cc3)cc2N)cc1,3.5
20,CC(C)(C)CC(=O)Nc1nnc(SCC(=O)NC2CCCCC2)s1,-1.5
21,Cc1ccc2c(c1)C1(OCCCO1)C(=O)N2CC#N,17.6
22,COc1ccc(NC(=O)CSc2nnc(C3CC3)n2C)cc1S(=O)(=O)N1CCCCC1,-2.02

row,SMILES,"hERG current change (%, negative = inhibition) at 1uM [%]"
1,CC(C)(C)N1C(=O)c2ccc(C(=O)O)cc2C1=O,12.9
2,Cc1ccc(NC(=O)COC(=O)c2ccc(OCc3c(C)noc3C)cc2)cc1S(=O)(=O)N1CCOCC1,7.98
3,CCOC(=O)C(CCCOc1ccc(C)cc1)C(=O)OCC,16.9
4,O=C(NCCOc1ccccc1F)c1cccc(S(=O)(=O)N2CCN(c3ccccc3)CC2)c1,17.6
5,O=C(c1noc2c1CCCC2)N1CCc2ccccc2C1,4.42
6,CC(C)(C)c1csc(NC(=O)CCc2ccccc2)n1,13.8
7,Cc1cc(N2C(=O)C(O)=C(C(=O)c3ccco3)C2c2ccc([N+](=O)[O-])cc2)no1 (stereo not shown),9.78
8,CN(C)c1ccc(/C=N/NC(=O)c2ccccc2Cl)cc1,10.7
9,O=C(c1ccc(S(=O)(=O)NCc2ccco2)cc1)N1CCCC(C(F)(F)F)C1 (stereo not shown),17.7
10,COc1ccc(CCNC(=O)CSc2nc3[nH]ncc3c(=O)n2-c2ccc(Br)cc2)cc1OC,9.59
11,CN(CC(=O)Nc1cccc(F)c1)C(=O)COc1cccc2c1OC(C)(C)C2,2.49
12,COc1ccc(N2CC(C(=O)Nc3nnc(C4CCCCC4)s3)CC2=O)cc1 (stereo not shown),7.46
13,CCN(C(=O)C1CSC2(C)CCC(=O)N12)c1nc2c(C)cccc2s1 (stereo not shown),18.9
14,CCCCNC(=O)c1c(N)n(Cc2ccc3c(c2)OCO3)c2nc3ccccc3nc12,19.2
15,CCc1ccc(C(=O)NNC(=O)CCN2CCN(Cc3ccccc3)CC2)cc1,-13
16,CCC(C)(C)c1ccc(OCC(=O)N(C)C)c(C(C)(C)CC)c1,6.22
17,O=C(NC1CCN(Cc2ccccc2)CC1)c1cccc(S(=O)(=O)Nc2cc(C(F)(F)F)ccc2Cl)c1,11.6
18,Cc1onc(-c2ccccc2)c1C(=O)NC(=S)NNC(=O)c1cc(-c2ccc(F)cc2)n[nH]1,12.3
19,NS(=O)(=O)c1ccc(CCNC(=O)CSc2ccccc2)cc1,2.49
20,O=S(=O)(CCN1C=CC(C(F)(F)F)=NCC1)c1ccc(Cl)cc1Cl,7.41
21,CCN(CC)S(=O)(=O)c1ccc(C(=O)NCc2n[nH]c(=S)n2Cc2ccccc2)cc1,7.74
22,CCCN1C(=O)C(=O)N(CC(=O)c2cc(C)n(C3CC3)c2C)C1=O,6.3

row,SMILES,"hERG current change (%, negative = inhibition) at 1uM [%]"
1,Cc1ccsc1C(=O)Nc1nccs1,12.9
2,CCCCc1ccc(NC2=NCCCS2)cc1,5.57
3,Cn1c(SCC(=O)NCc2cccs2)nnc1-c1cccs1,-10.6
4,NS(=O)(=O)c1ccc(NC(=O)CN2C(=O)C3C4C=CC(C4)C3C2=O)cc1 (stereo not shown),15.4
5,CCOc1ccc(CCNC(=O)CN(C)S(=O)(=O)c2cccs2)cc1OCC,13.5
6,CCn1cc(C(=O)NCc2ccc3c(c2)OCO3)c2cc(OC)c(OC)cc2c1=O,4.91
7,C=CCn1cc(/C=N/NC(=O)COc2cccc3cccnc23)c2ccccc21,18.4
8,O=C(CSc1ccc2nc(-c3ccccc3)cn2n1)NCC1CCCO1 (stereo not shown),8.39
9,Cn1c(N)c(C(=O)COC(=O)CC2CC3CCC2C3)c(=O)n(C)c1=O (stereo not shown),-19.6
10,CCOC(=O)N1CCN(Cc2ccccc2Cl)CC1,6.35
11,CCn1c(O)c(N=Nc2ccc3ccccc3n2)c2ccccc21,5.1
12,COc1cccc(CNC(=O)CCNC(=O)C2CCN(S(=O)(=O)c3ccc(F)cc3)CC2)c1,12.6
13,NC1=NC(=O)/C(=C/c2cn(CCC(=O)O)nc2-c2ccc(F)cc2)S1,4.71
14,COc1ccc(N(C(=O)c2cc3ccccc3oc2=O)C2C=CS(=O)(=O)C2)cc1 (stereo not shown),2.6
15,COc1ccc(NC(=O)CSc2nc3ccccc3c(=O)n2CCNC(C)=O)c(OC)c1,-12.5
16,CCOc1cc(/C=C2\SC(=Nc3ccccc3)N(c3ccccc3)C2=O)ccc1OCC(=O)O,3.33
17,COC(=O)c1cc(S(=O)(=O)NCCc2ccccc2)c[nH]1,7.64
18,COC(=O)NNC(=O)c1ccccc1C,-8.76
19,CCOC(=O)C(c1ccccc1)C(Nc1ccccc1)c1ccccn1 (stereo not shown),11.5
20,CCOC(=O)c1c(NC(=O)c2ccc(S(=O)(=O)N(C)CC3CCCO3)cc2)sc2c1CC(C)(C)NC2(C)C (stereo not shown),11.5
21,CCN(c1cccc(C)c1)S(=O)(=O)c1ccc(OC)c([N+](=O)[O-])c1,10.3
22,CCn1cc(C(=O)OCC(=O)c2ccc(Cl)cc2)c(=O)c2ccc(C)nc21,4.76

row,SMILES,"hERG current change (%, negative = inhibition) at 1uM [%]"
1,Cc1cc(C)n(-c2ccc(NC(=O)C3CCCCN3C(=O)c3cccs3)cc2)n1 (stereo not shown),0.895
2,O=C(NCc1ccc(Cl)cc1)C1CCCO1 (stereo not shown),2.36
3,Cc1cccc(NC(=O)CSc2nncn2-c2ccccn2)c1,4.07
4,CCOC(=O)c1[nH]c(C)c(/C(O)=C2\C(=O)C(=O)N(CCN(C)C)C2c2ccncc2)c1C (stereo not shown),14.5
5,CN1CCN(CCOCCOc2ccc(Br)cc2Cl)CC1.O=C(O)C(=O)O,10.1
6,CCOC(=O)c1c(C)n(-c2ccc(OC)cc2)c2c(C/C(C)=N/O)c(Br)c(OC)c(O)c12,5.62
7,CCC(C)(C)n1nnnc1C(c1ccc(OC)cc1)N1CCN(C(=O)c2ccco2)CC1 (stereo not shown),1.97
8,CC(=O)Oc1ccc(Cl)cc1/C=C/c1cc(OC(C)=O)c2ccccc2n1,17.8
9,Cc1ccccc1NS(=O)(=O)CCCCC(Cl)(Cl)Cl,12.6
10,CC(C)C(=O)Nc1ccc(C(=O)NNC(=O)NC2CCCCC2)cc1,21.9
11,COc1ccc(NC(=O)Cn2ccc3c(OC)cccc3c2=O)cc1,10.8
12,CCCCSc1nc(O)c(C2OC(=O)c3c2ccc(OC)c3OC)c(=O)n1C (stereo not shown),1.25
13,COc1ccc(NC(=O)c2cc(S(=O)(=O)N(C)C)ccc2N2CCCC2)cc1Cl,5.07
14,Cc1cc(C)n(-c2ccc(C(=O)OCc3ccccc3)cc2)n1,13.2
15,CSc1nc(N)nc(N(C)C)n1,13.5
16,COc1ccc(CN(C(=O)/C=C/c2ccco2)C2CCS(=O)(=O)C2)cc1 (stereo not shown),11.9
17,CC(C(=O)NC(N)=O)N1C(=O)NC(c2ccccc2)(c2ccccc2)C1=O (stereo not shown),-0.156
18,CCOc1ccccc1Nc1nnc(SCC(=O)NC(Cc2c[nH]c3ccccc23)C(=O)O)s1 (stereo not shown),11.9
19,C=CCOc1ccc(/C=N/NC(=O)CN2CCCCC2)cc1OC,-6.47
20,OCC1(CCc2ccccc2)CCN(Cc2cc(F)ccc2-n2cccn2)CC1,-85.3
21,CC1(C)Cc2nc(-c3ccccc3)nc(SCC(O)CO)c2CO1 (stereo not shown),4.23
22,CCOC(=O)c1c(C)[nH]c(C(=O)NCc2ccco2)c1C,8.03
